Out of some 52,000 compounds screened, about 1,700 (3.3%) were called active. No stated cut-off is given here; in the data, active means survival mostly below about 52% (no sharp cut-off); inactive means mostly above about 56%. The list shows a part of the results.

For the test, the system named is Wild type. The test can be described thus: growth inhibition of S. aureus wild type versus tarO mutant, primary screen, teichoic acid synthesis inhibitors, RN4220, OD600 (AID 463173). To be noted: S. aureus RN4220 wild type/DeltatarO growth, OD600, 18 h, stronger effect = lower value, screened at 18.75 µg/mL (by protocol).
With `COc1ccc(C(=O)N2CCCCC2CCN2CCOCC2)cc1` (stereo unspecified), the survival was inactive: 87%.

Turning to `Cc1cc(N2CCOCC2)nc(=S)[nH]1`, the survival was inactive: 98%.

Take `CC1=C(c2ccc(C)c(C)c2)S(=O)(=O)N=C1N1CCN(c2cccc(C)c2)C(C)C1` (stereo unspecified): the survival was inactive: 71%.

On to `CCOc1ccc(NC(=O)CC2Nc3cccc4cccc(c34)NC2=O)cc1` (stereo unspecified), for which the survival is inactive: 63%.

Take `O=C(c1ccccc1Cl)N1CCCC(c2nc3c(nnn3Cc3ccc(F)cc3F)c(=O)[nH]2)C1` (stereo unspecified): the survival is inactive: 92%.

Take `CN(C(=O)CSc1nc2ccc(NC(=O)COc3ccc(F)cc3)cc2s1)c1ccccc1`: the survival is inactive: 79%.

Take `CCOC(=O)c1ccc(NC(=O)C2=C(C)C(=O)OC23CCCCCC3)cc1`: the survival is inactive: 88%.

As to `CC(C)Sc1ncc(Cl)c(C(=O)Nc2nc3ccc(S(C)(=O)=O)cc3s2)n1`, the survival was inactive: 112%.

`Cc1cc(-c2ccc(S(=O)(=O)Nc3cccc(C(F)(F)F)c3)s2)on1`: the survival was inactive: 120%.

As for `COC(=O)C1=NNC2(c3ccc(C)cc3)C(=O)N(c3ccc(C)cc3)C(=O)C12` (stereo unspecified), the survival was inactive: 108%.

As for `COc1ccc(NC(=O)Cn2c(=O)n(Cc3nc(C)no3)c(=O)c3cc4c(cc32)OCO4)cc1`, the survival is inactive: 71%.

Consider `Cc1cc(C)c(NC(=O)C2CCN(C(=O)N3CC(C)Oc4ccc(Cl)cc43)CC2)c(C)c1` (stereo unspecified), for which the survival was inactive: 74%.

For `Cc1cc(C)cc(NS(=O)(=O)c2ccc(-c3cc(C)no3)s2)c1`, the survival was inactive: 69%.

For `COc1ccc(NC(=O)c2cc3c(=O)n(Cc4cccs4)ccc3nc2C)c(OC)c1`, the survival is inactive: 83%.

On to `Cc1c(C(=O)N(C)C)sc2c1c(=O)n(-c1ccccc1C(F)(F)F)c(=O)n2Cc1ccccc1C#N`, for which the survival was inactive: 66%.

As for `Cc1ccc(-c2nc3cc(Cl)ccc3o2)cc1NC(=O)c1cc2ccccc2o1`, the survival is inactive: 72%.

`COc1ccc(-c2nsc(NC(=O)COc3ccccc3OC)n2)cc1`: the survival is inactive: 98%.

`CC(C)Cc1nn2c(=O)cc(COC(=O)c3cccc(NC(=O)c4cccs4)c3)nc2s1`: the survival is inactive: 72%.

Regarding `COc1ccccc1CNC(=O)CCCn1c(=O)c2ccccc2n(CC(=O)Nc2ccc(C)cc2Cl)c1=O`, the survival was inactive: 101%.

For the compound `Cc1ccccc1Cn1c(=O)n(CC2CCC(C(=O)N3CCC(C)CC3)CC2)c(=O)c2sccc21` (stereo unspecified), the survival is inactive: 72%.

On to `Cn1c(SCC(=O)O)nc2ccccc21`, for which the survival is inactive: 118%.

Take `Cn1c(=O)n(Cc2ccccc2Cl)c(=O)c2c1nc1n2CCN1c1ccccc1`: the survival is inactive: 85%.

`COc1cccc(CNC(=O)CSc2cc(C)[nH]c(=O)n2)c1`: the survival is inactive: 69%.

For `Cc1c(Cl)cccc1NC(=O)CSc1nc(=O)n(Cc2ccncc2)c2c1CCC2`, the survival is inactive: 153%.

With `Cc1ccc(C(=O)COC(=O)CCCC(=O)Nc2cc(C(F)(F)F)ccc2Cl)cc1C`, the survival was inactive: 57%.

Consider `Cc1oc(-c2ccc(C(=O)NCCCOC(C)C)cc2)nc1CS(=O)(=O)c1ccccc1`, for which the survival is active: -6%.

Turning to `COc1ccc(C(=O)NCc2ccc3c(c2)CCN3C(C)=O)cc1OC`, the survival was inactive: 73%.

As for `Cc1cc(Nc2ccccc2F)n2nc(Cc3ccc(Cl)cc3)nc2n1`, the survival was inactive: 84%.

`COc1cc2c(cc1OC)n(CC(=O)Nc1ccc(C)cc1C)c(=O)n1nc(-c3ccccc3)nc21`: the survival was inactive: 91%.

For the compound `O=C(NN1C(=O)C2C3C=CC(C3)C2C1=O)c1ccccc1` (stereo unspecified), the survival is inactive: 110%.

Turning to `CCn1ccc2cc(S(=O)(=O)N3CCCN(C(=O)Nc4ccc(C)cc4Cl)CC3)ccc21`, the survival is inactive: 63%.

On to `Cc1cccc(NC(=O)CSc2ncc3c(n2)-c2cc(Cl)ccc2N(C)S3(=O)=O)c1C`, for which the survival is inactive: 94%.

For the compound `CC(C)c1ccc(Nc2cc(C(=O)NCCCN(C)Cc3ccccc3)c3ccccc3n2)cc1`, the survival is inactive: 159%.

For the compound `COC(=O)c1ccc(C2c3c(-c4ccc(Br)cc4)n[nH]c3C(=O)N2c2ccc(Cl)cc2)cc1` (stereo unspecified), the survival is inactive: 75%.

As to `CC(=O)N1CCN(C(=O)C(=O)Nc2c3c(nn2-c2ccc(Cl)cc2)CSC3)CC1`, the survival is active: -3%.

For `CCOc1ccc2c(c1)c(=O)c(S(=O)(=O)c1ccc(CC)cc1)cn2CC`, the survival is inactive: 75%.

As to `CCc1ccc(OCC(=O)Nc2cc3oc4ccccc4c3cc2OC)c(Br)c1`, the survival was inactive: 102%.

As for `O=C(COc1ccccc1)Nc1c(C(=O)N2CCN(c3ccc(F)cc3)CC2)oc2ccccc12`, the survival is inactive: 74%.

As to `CC1CCN(C(=O)CN2c3ccc(Br)cc3-c3ccccc3S2(=O)=O)CC1`, the survival is inactive: 105%.

`COc1ccc(-c2nnc(SCC(=O)N3CCCCC3)o2)cc1`: the survival was inactive: 72%.

In the case of `CCOc1ccccc1-c1noc(CSc2nnc(-c3ccncc3)n2-c2ccc(F)cc2)n1`, the survival is inactive: 78%.

For `Cc1c(C(=O)Nc2ccccc2Br)oc2ccccc12`, the survival was inactive: 101%.

With `CCOc1ccc(CCNC(=O)CCCc2nnc3n(CCCOC)c(=O)c4sccc4n23)cc1`, the survival was inactive: 96%.

In the case of `O=C1CC(c2ccccc2)Cc2[nH]c(=O)c(C(=O)Nc3ccc(F)cc3)cc21` (stereo unspecified), the survival was inactive: 75%.

In the case of `Cc1c(C(=O)N2CCCCCC2)c(S(=O)(=O)Nc2ccc(OC(F)(F)F)cc2)c(C)n1C`, the survival is inactive: 132%.

On to `COCCn1c(Cc2ccccc2)nnc1SCC(=O)N(C)C`, for which the survival is inactive: 100%.

Turning to `CCOC(=O)c1ccc(NC(=O)CSc2cc(-c3ccccc3)nc(C)n2)cc1`, the survival is inactive: 71%.

With `Nc1ccccc1NC(=O)CCC(=O)O`, the survival is inactive: 97%.

Take `Cc1ccc(C)c(N(C)C(=O)CCNC(=O)Cn2cnc3ccccc3c2=O)c1`: the survival is inactive: 70%.

Turning to `CC(C)CC(=O)Nc1nnc(S(=O)(=O)N(C)c2ccc(Cl)cc2)s1`, the survival was inactive: 103%.

In the case of `CN1CCN(S(=O)(=O)c2ccc(Br)c3ccccc23)CC1`, the survival was inactive: 109%.

As for `O=C(CNC(=O)c1ccccc1Cl)OCc1cc(=O)n2nc(C3CC3)sc2n1`, the survival is inactive: 74%.

For `Cc1c(-c2ccc(Cl)cc2)c(=O)oc2c(CN3CCN(C)CC3)c(O)ccc12`, the survival is inactive: 153%.

`CC1CCc2c(sc3nc(-c4cc5ccccc5oc4=O)nc(Cl)c23)C1` (stereo unspecified): the survival was inactive: 58%.

For `COc1cccc2sc(N(Cc3cccnc3)C(=O)C3CCCCC3)nc12`, the survival was inactive: 93%.

Take `CCOC(=O)C1CCCN(C(=O)c2cc3c(Cl)nc4ccccc4c3s2)C1` (stereo unspecified): the survival is inactive: 41%.

Source of the values: PubChem BioAssay AID463173 (ICCB-Longwood Screening Facility, Harvard Medical School, 2010).
